Screen size: about 48,000 compounds; about 550 (1.1%) were called active. Roughly 4% stayed inconclusive and do not appear here. No stated cut-off is given here; in the data, active means potency below about 15 µM; inconclusive means mostly about 16 µM to 33 µM; inactive means weaker than that. Some of the results follow.
Molecular target: Lysosomal acid glucosylceramidase (Homo sapiens) (UniProt P04062)
Experiment: Glucocerebrosidase;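 further: the screen sought inhibitors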
Settings: purified enzyme, resorufin glucoside fluorescence (screen aimed at inhibitors), 20 min
In short: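 Compounds titrated against 0.2 nM normal enzyme, 30 uM resorufin beta-D-glucopyranoside substrate, citrate/phosphate buffer with taurocholate and tween-20, pH 5.9. Reaction ran 20 min at room temperature; fluorescence (Ex 548/Em 600) gave AC50.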
Potency means the concentration at half of the fitted maximal effect.

Sequence of UniProt P04062 (P04062 whole entry, looked up): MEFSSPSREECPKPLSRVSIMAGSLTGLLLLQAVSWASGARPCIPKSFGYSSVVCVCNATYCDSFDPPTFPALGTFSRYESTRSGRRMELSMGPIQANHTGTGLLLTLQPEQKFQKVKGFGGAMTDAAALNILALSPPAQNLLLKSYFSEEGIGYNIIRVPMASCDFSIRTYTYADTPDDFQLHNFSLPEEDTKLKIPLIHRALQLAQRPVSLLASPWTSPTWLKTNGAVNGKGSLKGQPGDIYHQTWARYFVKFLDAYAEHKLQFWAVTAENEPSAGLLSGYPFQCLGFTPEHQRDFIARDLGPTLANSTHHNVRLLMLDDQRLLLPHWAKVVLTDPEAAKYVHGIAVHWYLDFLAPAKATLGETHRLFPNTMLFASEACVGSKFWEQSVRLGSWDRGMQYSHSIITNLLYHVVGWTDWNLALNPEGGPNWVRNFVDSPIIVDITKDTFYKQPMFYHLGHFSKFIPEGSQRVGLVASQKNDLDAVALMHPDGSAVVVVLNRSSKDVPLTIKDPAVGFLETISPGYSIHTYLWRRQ

Potency, inactive:
COc1ccc(NC(=O)CSc2nnc(-c3ccccc3)n2N)cc1 > 76.9 µM
CCOC(=O)c1ccccc1NC(=O)Cn1cnc2c(cnn2-c2ccccc2)c1=O > 76.9 µM
CCOc1ccc(Nc2nc(CC(=O)OC)cc(=O)[nH]2)cc1 > 76.9 µM
CCOc1ccccc1C1CC(=O)NC2=C1C(=O)CCC2 (stereo not given) > 76.9 µM
CN(C)S(=O)(=O)N1CCC(C(=O)O)(c2ccccc2)CC1 > 76.9 µM
COc1ccc(C(=O)Nc2ccc(C)cn2)c(OC)c1 > 76.9 µM
COc1ccc(C(c2nnnn2CCc2ccccc2)N2CCN(C3CCCC3)CC2)cc1OC (stereo not given)
Cc1c(NC(=O)CSC2=C(C#N)C(c3ccccc3F)CC(=O)N2)c(=O)n(-c2ccccc2)n1C (stereo not given) > 76.9 µM
O=C(OCC(=O)N1CCCC1)c1ccco1 > 76.9 µM
CCC(C)Nc1nc(OCC(F)(F)F)nc(OCC(F)(F)F)n1 (stereo not given) > 76.9 µM
Cc1cc(C(F)F)n2nc(C(=O)Nc3ccc(S(=O)(=O)N4CCCCCC4)cc3)nc2n1 > 76.9 µM
Cc1cc(N2CCC(C)CC2)nc2ccc(N3C(=O)CCC3=O)cc12 > 76.9 µM
Cc1ccc(S(=O)(=O)N2CCCC2C(=O)n2nc(C)cc2C)cc1 (stereo not given) > 76.9 µM
C=CCn1c(Cc2cccs2)nnc1SCC(=O)Nc1ccc(C(=O)OCC)cc1 > 76.9 µM
O=C(O)c1ccc(Cl)c(NC(=O)C2CCCN2S(=O)(=O)c2cccc3nsnc23)c1 (stereo not given) > 76.9 µM
CC(O)CN(Cc1cccc(Cl)c1)CC(C)O (stereo not given) > 76.9 µM
Cc1ccc(-c2nc(COC(=O)c3c(C)noc3C)cs2)cc1 > 76.9 µM
CCOc1ccc(C(=O)Cc2ccc3oc(C(=O)O)cc3c2)c(O)c1 > 76.9 µM
O=C(NCCCN1CCCCC1)c1ccc2c(=O)n(CCc3ccccc3)c(=O)[nH]c2c1 > 76.9 µM
Cc1ccc(-n2nnnc2SCC(=O)c2cc(C)n(-c3cc(C)on3)c2C)c(C)c1 > 76.9 µM
O=C(COC(=O)C12CC3CC(CC(O)(C3)C1)C2)NC(=O)NCc1ccco1 > 76.9 µM
O=C(CSc1nnc2n(C3CCCCC3)c(=O)c3ccccc3n12)OC1CCCCC1 > 76.9 µM
Cn1c(CCNC(=O)c2ccc(F)cc2)nc2ccccc21 > 76.9 µM
O=C(NCCc1ccccc1)C1CCCN1C(=O)Nc1ccc(F)cc1 (stereo not given) > 76.9 µM
O=C(CSc1nnc(-c2ccco2)o1)NC(=O)Cc1ccccc1 > 76.9 µM
COc1cc(C(=O)Nc2nccs2)ccc1OCc1c(C)noc1C > 76.9 µM
COc1ccc(-c2nnc(SCC(=O)c3ccc(C)o3)o2)cc1 > 76.9 µM
Cc1nc(NC2=NCN(C3CCCCC3C)CN2)nc2ccccc12 (stereo not given) > 76.9 µM
CCCc1cc(=O)n2[nH]c(-c3ccc(C)cc3)cc2n1 > 76.9 µM
CCN(C(=O)Cn1c(=O)oc2ccccc21)c1cccc(C(F)(F)F)c1 > 76.9 µM
N#Cc1nc(Cc2cccc3ccccc23)oc1NCc1ccc(F)cc1 > 76.9 µM
CC(C)(Oc1ccc(Cl)cc1)C(=O)Nc1ccc2oc(-c3ccncc3)nc2c1 > 76.9 µM
COc1cc2[nH]c(=O)n(CCCCCC(=O)NCCCN3CCOCC3)c(=O)c2cc1OC
Cc1ccc(NC(=O)COc2ccc3oc4c(c3c2)CCCC4)nc1 > 76.9 µM
Cc1ccc(-c2csc(=S)n2CC(=O)OCC(=O)NCc2ccco2)cc1 > 76.9 µM
O=C(c1ccco1)N1CCN(C(=O)c2cnn3c(C(F)(F)F)cc(-c4cccs4)nc23)CC1 > 76.9 µM
CCn1cc(/C=C(/C#N)S(=O)(=O)c2ccccc2)cn1 > 76.9 µM
CCOC(=O)Nc1nnc(-c2cccc(OC)c2)s1 > 76.9 µM
O=C(Nc1nnc(CCc2ccccc2)s1)c1cccs1 > 76.9 µM
O=C1CC(N2CCOCC2)C(=O)N1CCc1ccccc1 (stereo not given) > 76.9 µM
O=C(COC(=O)c1ccc2c(c1)OCCO2)NCc1ccccc1 > 76.9 µM
O=C(O)CC(NS(=O)(=O)c1cccc2nsnc12)c1ccc(F)cc1 (stereo not given) > 76.9 µM
COc1cc2c(C(=O)NC3CCCCCC3)cn(C)c(=O)c2cc1OC > 76.9 µM
Cc1ccc(-c2nc3cnccn3c2Nc2ccc3c(c2)OCCO3)o1 > 76.9 µM
O=C(CSc1nnc2ccccn12)Nc1ccccc1C(=O)NC1CC1 > 76.9 µM
O=C(c1cccc(C(=O)N2CCN(c3ccccc3F)CC2)n1)N1CCN(c2ccccc2F)CC1 > 76.9 µM
COC(=O)CSc1nnc2c3c4c(sc3nc(-n3nc(C)cc3C)n12)COC(C)(C)C4 > 76.9 µM
CCOC(=O)CSc1nnc(-c2ccc(Cl)cc2Cl)o1 > 76.9 µM
CC(C)(C)S(=O)(=O)c1ccccc1C(=O)O > 76.9 µM
CCc1nnc(NC(=O)c2ccc(S(=O)(=O)N3CCCCC3C)cc2)s1 (stereo not given) > 76.9 µM
O=C(NCC1CCCO1)c1ccccn1 (stereo not given) > 76.9 µM
COC(=O)C1=C(C)N(C)C(C)=C(C(=O)OC)C1c1ccncc1 > 76.9 µM
O=C(NCc1ccccc1F)C1CCCN(C(=O)NC2CCCCC2)C1 (stereo not given) > 76.9 µM
COc1ccc(NC(=O)COn2nnc3ccc(Cl)cc32)cc1OC > 76.9 µM
Cc1cc(NC(=O)c2cnn3c(C(F)F)cc(-c4ccccc4)nc23)no1 > 76.9 µM
CC(C)Cn1c(N2CCN(C(=O)c3cccs3)CC2)nc2ccccc21 > 76.9 µM
Cc1ccc(-n2nc3c(c2NC(=O)c2c(-c4ccccc4Cl)noc2C)CSC3)cc1 > 76.9 µM
CCOC(=O)c1[nH]c(C)c(CN(CCc2ccc(OC)c(OC)c2)C(=O)CCCC(=O)O)c1C > 76.9 µM
COCCn1nnnc1C(c1cc2cccc(C)c2[nH]c1=O)N1CCN(c2ccccc2F)CC1 (stereo not given) > 76.9 µM
Cc1[nH]c2ccc(-c3nnc(SCC(=O)c4ccc(F)cc4)o3)cc2c1C > 76.9 µM
O=C(O)Cn1nc(-c2ccccc2)c2ccccc2c1=O > 76.9 µM
Nc1nonc1C(=O)NCCNCc1ccccc1OCc1ccccc1F > 76.9 µM
CCn1c2c(c3cc(C(=O)O)ccc31)CCCC2=O > 76.9 µM
O=C(NCCC(=O)N1CCN(c2ncccn2)CC1)c1ccccc1 > 76.9 µM
C=CCOc1nc(N2CCCC2)nc(N2CCCC2)n1 > 76.9 µM
O=C(NCCCNCc1ccccc1)c1ccccn1 > 76.9 µM
CCc1c(C(=O)Nc2ncn(Cc3cccc(C)c3)n2)csc1C > 76.9 µM
COC(=O)N1CN(C(=O)OC)CN(C(=O)OC)C1 > 76.9 µM
CN1C(=O)CC(N2CCC(c3nc4ccccc4s3)CC2)C1=O (stereo not given) > 76.9 µM
Cc1nc2ccccc2nc1CSc1nncs1 > 76.9 µM
CN(C)c1nc(N)nc(-c2nc3ccccc3s2)n1 > 76.9 µM
C=CCn1c(COc2cccc(C)c2)nnc1SCC(=O)NC(=O)NCc1ccco1 > 76.9 µM
COc1cc(CN2CCC(C(=O)N3CCN(c4ccccc4F)CC3)CC2)cc(OC)c1O > 76.9 µM
COc1ccc(N2CCN(C(=O)CSc3nnc4n3C(C)(C)Cc3ccccc3-4)CC2)cc1 > 76.9 µM
COC(=O)[C@@H](NC(=O)Nc1ccccc1F)C(C)C > 76.9 µM
C=C1CC(C)OC(c2ccccc2OCC(O)CN2CCCCC2)C1 (stereo not given) > 76.9 µM
Cc1cccc(-c2noc(CN(C)S(=O)(=O)c3cc(Cl)ccc3Cl)n2)c1 > 76.9 µM
O=C(CSc1nncs1)NCc1ccc2c(c1)OCO2 > 76.9 µM
Cc1ccc(OCCC(=O)OCC(=O)Nc2ccc(Cl)cn2)cc1 > 76.9 µM
O=C(Nc1cccc2nsnc12)C1CC(=O)N(c2ccccc2)C1 (stereo not given) > 76.9 µM
O=C(COc1ccc(Cl)cc1)Nc1ccccc1N1CCOCC1 > 76.9 µM
O=C(CCSc1nnc(-c2ccco2)o1)Nc1ccc(Cl)cc1 > 76.9 µM
Cc1ccc2c(CC(=O)OCc3csc(C)n3)coc2c1 > 76.9 µM
Cc1cc(Cl)c(S(=O)(=O)NC(C(=O)O)c2ccccc2)cc1OCC(N)=O (stereo not given) > 76.9 µM
CCOc1ccc(N2C(=O)c3ccc(C(=O)OCc4c(C)noc4C)cc3C2=O)cc1 > 76.9 µM
O=c1nc2n(c3c4c(sc13)CCC4)CCC2 > 76.9 µM
Cc1cc(NC(=O)CCCC(=O)Nc2ccc(F)cc2)no1 > 15.4 µM
COc1ccc(N2CCN(S(=O)(=O)c3ccc(Br)s3)CC2)cc1 > 76.9 µM
C/C(Cl)=C/Cn1c(N2CCCC2)nc2c1c(=O)n(C)c(=O)n2C > 76.9 µM
CC(=O)Nc1cccc(NC(=O)CCn2cnc3cc(C)c(C)cc32)c1 > 76.9 µM

From PubChem BioAssay AID360 (National Center for Advancing Translational Sciences (NCATS), 2006)
